Experimental data from the supplement of paper PMC4604168 (melanoma cell lines).
The list shows a part of the results. Many values rest on one well or one pass, so single values are uncertain.
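Note: cells treated in 1,536-well plates, then fixed and DAPI-stained, with nuclei counted from automated high-throughput microscope images.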

The compounds below were run on IST-MEL1 (assay: cell count relative to DMSO control; melanoma cells; higher = more viable cells). Details: library dose: standard library concentration; 72 h.
With `CCCS(=O)(=O)Nc1ccc(F)c(C(=O)c2c[nH]c3ncc(Cl)cc23)c1F` + COc1ccc2c(c1)CCC1C2CCC2(C)C(NCCCCCCN3C(=O)C=CC3=O)CCC12 [U73122] (first compound 0.4 µM, partner dose 2 µM) the cell count was 95.5%.
Work on `CCCS(=O)(=O)Nc1ccc(F)c(C(=O)c2c[nH]c3ncc(Cl)cc23)c1F` + C#Cc1cccc(Nc2ncnc3cc(OCCOC)c(OCCOC)cc23)c1 [erlotinib] (first compound 0.4 µM, partner dose 4 µM) yielded a cell count of 84.5%.
Compound `CS(=O)(=O)c1ccc(C(=O)Nc2ccc(Cl)c(-c3ccccn3)c2)c(Cl)c1` [vismodegib] + COc1ccc(Cl)c(Nc2nc3ccccc3nc2NS(=O)(=O)c2cccc(NC(=O)C(C)(C)N)c2)c1 [XL147] (first compound 5 µM, partner dose 4 µM) has a cell count of 62.2%.
`CS(=O)(=O)c1ccc(C(=O)Nc2ccc(Cl)c(-c3ccccn3)c2)c(Cl)c1` [vismodegib] + Cn1c(Nc2ccc(C(F)(F)F)cc2)nc2cc(Oc3ccnc(-c4ncc(C(F)(F)F)[nH]4)c3)ccc21 [CHIR265] (first compound 5 µM, partner dose 0.4 µM) gave a cell count of 97.9%.
`C=C(c1ccc(C(=O)O)cc1)c1cc2c(cc1C)C(C)(C)CCC2(C)C` [Bexarotene] + C=CCn1c(=O)c2cnc(Nc3ccc(N4CCN(C)CC4)cc3)nc2n1-c1cccc(C(C)(C)O)n1 [MK1775] (first compound 10 µM, partner dose 0.1 µM) gave a cell count of 77.8%.
Compound `CS(=O)(=O)c1ccc(C(=O)Nc2ccc(Cl)c(-c3ccccn3)c2)c(Cl)c1` [vismodegib] + Oc1cc(-c2nc(-c3ccccc3)[nH]c2-c2ccncc2)ccc1Cl [L779450] (first compound 5 µM, partner dose 1 µM) has a cell count of 104%.
With `CN(c1ncccc1CNc1nc(Nc2ccc3c(c2)CC(=O)N3)ncc1C(F)(F)F)S(C)(=O)=O` + C=C(c1ccc(C(=O)O)cc1)c1cc2c(cc1C)C(C)(C)CCC2(C)C [Bexarotene] (first compound 0.4 µM, partner dose 10 µM) the cell count was 72.9%.
`CS(=O)(=O)c1ccc(C(=O)Nc2ccc(Cl)c(-c3ccccn3)c2)c(Cl)c1` [vismodegib] + O=C1NC(=O)/C(=C/c2ccc(-c3ccc(F)cc3O)o2)S1 [AS252424] (first compound 5 µM, partner dose 5 µM) gave a cell count of 101%.
`NC1(c2ccc(-c3nc4ccn5c(=O)[nH]nc5c4cc3-c3ccccc3)cc2)CCC1` + CN(NC(=O)CC(=O)NN(C)C(=S)c1ccccc1)C(=S)c1ccccc1 [STA4783] (first compound 2 µM, partner dose 0.03 µM) was tested, and the cell count was 40.5%.
`CS(=O)(=O)c1ccc(C(=O)Nc2ccc(Cl)c(-c3ccccn3)c2)c(Cl)c1` [vismodegib] + NC1(c2ccc(-c3nc4ccn5c(=O)[nH]nc5c4cc3-c3ccccc3)cc2)CCC1 [MK2206] (first compound 5 µM, partner dose 2 µM) gave a cell count of 89.3%.
With `CN(c1ncccc1CNc1nc(Nc2ccc3c(c2)CC(=O)N3)ncc1C(F)(F)F)S(C)(=O)=O` + O=C(CCCCCCC(=O)Nc1ccccc1)NO [vorinostat] (first compound 0.4 µM, partner dose 0.4 µM) the cell count was 84.2%.
`CS(=O)(=O)c1ccc(C(=O)Nc2ccc(Cl)c(-c3ccccn3)c2)c(Cl)c1` [vismodegib] + Nc1ncn([C@H]2C[C@H](O)[C@@H](CO)O2)c(=O)n1 [decitabine] (first compound 5 µM, partner dose 0.5 µM) was tested, and the cell count was 79.3%.
`CN(c1ncccc1CNc1nc(Nc2ccc3c(c2)CC(=O)N3)ncc1C(F)(F)F)S(C)(=O)=O` + O=C(Nc1cccc(Cl)c1)Nc1ncc(CCNc2ncnc3ccsc23)s1 [SNS314] (first compound 0.4 µM, partner dose 0.004 µM) gave a cell count of 60.6%.
Work on `C=C(c1ccc(C(=O)O)cc1)c1cc2c(cc1C)C(C)(C)CCC2(C)C` [Bexarotene] + COc1ccc(-c2ccc3c(N4CCOCC4)nc(N4C[C@@H](C)O[C@@H](C)C4)nc3n2)cc1CO [KU0063794] (first compound 10 µM, partner dose 0.1 µM) yielded a cell count of 82.5%.
For `C=C(c1ccc(C(=O)O)cc1)c1cc2c(cc1C)C(C)(C)CCC2(C)C` [Bexarotene] + Cn1cncc1[C@@](N)(c1ccc(Cl)cc1)c1ccc2c(c1)c(-c1cccc(Cl)c1)cc(=O)n2C [tipifarnib] (first compound 10 µM, partner dose 0.05 µM), the cell count was 77.7%.
